Reference: the supplement of paper PMC7826260
Some of the results follow. Each Rep nickase domain was tested in vitro on the same pool of single strands for 1 h at 37 °C with 3 µM enzyme; only the middle of the 90-letter strands is printed. Numbers give uncut DNA relative to the enzyme-free pool, as log2; more negative means more cut, near 0 not cut, and no call is made. Counts are relative to all reads; values above 0 arise when much of the pool is cut.

System: T1, Rep nickase domain of tomato golden mosaic virus
T1 sequence (Rep 1-124, printed without the tag): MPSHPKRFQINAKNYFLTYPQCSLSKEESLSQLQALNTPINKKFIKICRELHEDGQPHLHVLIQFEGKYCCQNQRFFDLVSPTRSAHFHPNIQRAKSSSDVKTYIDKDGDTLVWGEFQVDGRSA
Assay: uncleaved DNA left, log2 of reads against the no-enzyme library (log2 ratio); higher = less cleavage (more negative = more Rep cleavage of the k-mer); sequences stand for … in CTCGTCCG…ACCGGAGA
Procedure: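 A pool of 90-nt single-stranded DNAs with seven random bases just before the constant AC of the nick site (name = the seven bases) was cut by 3 µM recombinant His6-SUMO-tagged Rep nickase domain (300 nM DNA, 50 mM HEPES pH 8.0, 50 mM NaCl, 1 mM MnCl2, 1 h, 37 °C, three replicates). Uncut DNA was amplified and sequenced.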

How did the “uncleaved DNA left (log2)” value turn out when GCCGTAT was run?
The value was -0.0187.

With CTTGGAA as the sequence, how does the “uncleaved DNA left (log2)” value read?
Its value is 0.0283.

With TTGACCG as the sequence, how does the “uncleaved DNA left (log2)” value read?
The value was -0.0795.

With TAGTGTA as the sequence, how does the “uncleaved DNA left (log2)” value read?
Its value is 0.0173.

How did the “uncleaved DNA left (log2)” value turn out when GGGATAT was run?
The value was 0.00598.

How did the “uncleaved DNA left (log2)” value turn out when TACAATT was run?
The value was -0.508.

How did the “uncleaved DNA left (log2)” value turn out when CTTGTCC was run?
The value was -0.0666.

With TAGCAAA as the sequence, how does the “uncleaved DNA left (log2)” value read?
The value was 0.0664.

With CAGGGAC as the sequence, how does the “uncleaved DNA left (log2)” value read?
Its value is 0.295.

TAAGGCG was tested. Which “uncleaved DNA left (log2)” value did it give?
Its value is -0.0422.

CGACACA was tested. Which “uncleaved DNA left (log2)” value did it give?
The value was -0.1.

Which “uncleaved DNA left (log2)” value does the source give for ATTCAGT here?
The value was -0.173.

Which “uncleaved DNA left (log2)” value does the source give for AGCCACG here?
Its value is 0.0747.

CAGTCGA was tested. Which “uncleaved DNA left (log2)” value did it give?
The value was 0.174.

With AGAGTAC as the sequence, how does the “uncleaved DNA left (log2)” value read?
The value was 0.0701.

How did the “uncleaved DNA left (log2)” value turn out when CTCTCAT was run?
The value was 0.0698.

For CACTACC, which “uncleaved DNA left (log2)” value is on record?
The value was -0.0926.

With CTAGAGA as the sequence, how does the “uncleaved DNA left (log2)” value read?
Its value is -0.00876.

AGTTATG was tested. Which “uncleaved DNA left (log2)” value did it give?
Its value is 0.0277.

How did the “uncleaved DNA left (log2)” value turn out when TATCGCA was run?
The value was -0.0173.

How did the “uncleaved DNA left (log2)” value turn out when TTCCCAT was run?
The value was -0.19.

For AGACACG, which “uncleaved DNA left (log2)” value is on record?
The value was 0.0648.

For GGATTTC, which “uncleaved DNA left (log2)” value is on record?
The value was 0.0016.

How did the “uncleaved DNA left (log2)” value turn out when AGGAGTG was run?
Its value is 0.122.

For GCAGTAG, which “uncleaved DNA left (log2)” value is on record?
Its value is 0.0691.

With AAACGGC as the sequence, how does the “uncleaved DNA left (log2)” value read?
The value was 0.103.

ACTTAGC was tested. Which “uncleaved DNA left (log2)” value did it give?
Its value is -0.0571.

CCGAGAT was tested. Which “uncleaved DNA left (log2)” value did it give?
The value was 0.238.

With AGAGGTA as the sequence, how does the “uncleaved DNA left (log2)” value read?
Its value is 0.164.

How did the “uncleaved DNA left (log2)” value turn out when CTCATTA was run?
The value was -0.0498.

Which “uncleaved DNA left (log2)” value does the source give for CGCTTAT here?
The value was 0.164.

With ACGGTAG as the sequence, how does the “uncleaved DNA left (log2)” value read?
Its value is -0.00764.

How did the “uncleaved DNA left (log2)” value turn out when GATAACC was run?
Its value is 0.0183.

AAGTTAT was tested. Which “uncleaved DNA left (log2)” value did it give?
The value was -0.155.

Which “uncleaved DNA left (log2)” value does the source give for CGCTAAG here?
The value was 0.0285.

For GATACGT, which “uncleaved DNA left (log2)” value is on record?
Its value is -0.0161.

With ACGGCCG as the sequence, how does the “uncleaved DNA left (log2)” value read?
Its value is -0.098.

With GAACGAA as the sequence, how does the “uncleaved DNA left (log2)” value read?
The value was 0.314.

Which “uncleaved DNA left (log2)” value does the source give for TGTGATG here?
The value was 0.145.

For TTAGTTG, which “uncleaved DNA left (log2)” value is on record?
The value was 0.0776.
